The values that follow come from PubChem BioAssay AID360 (National Center for Advancing Translational Sciences (NCATS), 2006).

The structures appear in SMILES notation. Among all 48,000 compounds or so, about 550 (1.1%) were called active. Not shown: some 4% with an inconclusive outcome. Rule as the data show it: active = potency below about 15 µM; inconclusive = mostly about 16 µM to 33 µM; inactive = weaker than that. This is one part of the list.
Potency is read from the fitted curve at half-maximal effect.

This assay concerns the target Lysosomal acid glucosylceramidase (Homo sapiens) (UniProt P04062). As to the kind of experiment: Glucocerebrosidase.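 Also: the screen sought inhibitors.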 The following applies: purified enzyme, resorufin glucoside fluorescence (screen aimed at inhibitors), 20 min; series mostly up to 77 µM. The method, boiled down: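 Wild-type enzyme at 0.2 nM final in 50mM citric acid/KH2PO4, 10mM sodium taurocholate, 0.01% tween-20, pH 5.9, with resorufin beta-D-glucopyranoside at 30 uM final. Compounds titrated, 20 min at RT, red fluorescence read; AC50 from titration.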
Sequence of UniProt P04062 (P04062 whole entry, looked up): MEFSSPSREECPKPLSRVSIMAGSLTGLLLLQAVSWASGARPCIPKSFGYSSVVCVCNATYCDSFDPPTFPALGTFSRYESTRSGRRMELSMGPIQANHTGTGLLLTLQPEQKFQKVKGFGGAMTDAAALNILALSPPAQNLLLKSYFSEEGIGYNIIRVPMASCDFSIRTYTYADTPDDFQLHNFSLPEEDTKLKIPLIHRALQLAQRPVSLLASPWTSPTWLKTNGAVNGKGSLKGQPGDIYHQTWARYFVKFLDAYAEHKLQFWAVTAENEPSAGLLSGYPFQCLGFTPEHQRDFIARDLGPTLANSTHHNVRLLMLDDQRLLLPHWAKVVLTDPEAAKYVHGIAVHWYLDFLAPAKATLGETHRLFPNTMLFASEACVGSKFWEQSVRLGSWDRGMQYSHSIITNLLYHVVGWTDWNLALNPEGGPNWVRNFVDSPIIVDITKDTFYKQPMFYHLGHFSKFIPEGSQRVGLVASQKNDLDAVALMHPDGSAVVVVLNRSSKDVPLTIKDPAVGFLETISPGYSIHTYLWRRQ
For `CCOC(=O)C1=C(C)OC(N)=C(C#N)C1c1cc2c(cc1Br)OCO2` (stereo unspecified), the Potency is inactive: > 76.9 µM.

For `CN1CCc2c(sc(/N=C/c3ccco3)c2C(N)=O)C1`, the Potency is inactive: > 76.9 µM.

Turning to `COc1ccc(C)cc1S(=O)(=O)N1CCCC(C(=O)NCC2CCCO2)C1` (stereo unspecified), the Potency is inactive: > 76.9 µM.

Consider `O=C(Cn1c(C(=O)NCC2CCCO2)cc2sccc21)c1ccccc1` (stereo unspecified), for which the Potency was inactive: > 76.9 µM.

On to `COC(=O)c1ccccc1N1C(=O)C2C(C1=O)[C@H]1C=C[C@@H]2C1` (stereo partly specified), for which the Potency was inactive: > 76.9 µM.

On to `CCOC(=O)N1CCC(NC(=O)C2CCCN(S(C)(=O)=O)C2)CC1` (stereo unspecified), for which the Potency was inactive: > 76.9 µM.

As for `O=C(Nc1cccc2ccccc12)N1CCN(c2ccccc2)CC1`, the Potency was inactive: > 76.9 µM.

As to `O=C(Cn1cnc2ccccc21)NCCCN1CCOCC1`, the Potency was inactive: > 76.9 µM.

Turning to `Cn1cnc2cc(NS(=O)(=O)c3ccc(Br)cc3)ccc21`, the Potency entry is “inactive”.

With `CC(Sc1nc(-c2ccccc2)cc(C(F)(F)F)n1)C(=O)N1CCC(C(N)=O)CC1` (stereo unspecified), the Potency was inactive: > 76.9 µM.

Turning to `Cc1noc(C)c1S(=O)(=O)N1CCCC(C(=O)Nc2cccnc2)C1` (stereo unspecified), the Potency is inactive: > 76.9 µM.

Take `COc1ccc(OCC(=O)NCc2cccnc2)cc1`: the Potency is inactive: > 76.9 µM.

For `O=C(O)c1cccc(CSc2nnc(Cc3ccccc3)o2)c1`, the Potency is inactive: > 76.9 µM.

For the compound `Cc1ccccc1-c1nc(CN2CCC(C(=O)NCCCN3CC(C)CC(C)C3)CC2)c(C)o1` (stereo unspecified), the Potency was inactive: > 76.9 µM.

Regarding `Cc1ccc2c(C)nc(NC3=NCN(C(C)C)CN3)nc2c1`, the Potency was inactive: > 76.9 µM.

For the compound `CCOC(=O)NC1CCS(=O)(=O)C1` (stereo unspecified), the Potency is inactive: > 76.9 µM.

As to `CCOCCCN1C(=O)CN(C2CCCCC2)C(=O)C1c1ccc(OC)c(OC)c1` (stereo unspecified), the Potency is inactive: > 76.9 µM.

Take `Cc1ccc(Cl)cc1N1CCN(Cc2nc3c(c(=O)[nH]c(=O)n3C)n2CCc2ccccc2)CC1`: the Potency is inactive: > 76.9 µM.

As for `Cc1ccc(C2=N/C(=C/N3CCOCC3)C(=O)O2)cc1`, the Potency is inactive: > 76.9 µM.

For the compound `Cn1c(=O)cc(SCC(=O)NCC2CCCO2)c2ccccc21` (stereo unspecified), the Potency was inactive: > 76.9 µM.

For `COc1cc(-c2nnc(SCc3cccnc3)n2C)cc(OC)c1O`, the Potency was inactive: > 76.9 µM.

`Brc1c(CSc2nncn2-c2ccccc2)nc2ncccn12`: the Potency is inactive: > 76.9 µM.

As to `CC(C)CCn1nnnc1C(c1ccccc1)N1CCN(C)CC1` (stereo unspecified), the Potency is inactive: > 76.9 µM.

On to `CCCOc1ccc(C2c3c(oc4ccccc4c3=O)C(=O)N2CCN(CC)CC)cc1OC` (stereo unspecified), for which the Potency is inactive: > 76.9 µM.

As for `c1ccc(CCNc2ncnc3c2nnn3Cc2ccccc2)cc1`, the Potency is inactive: > 76.9 µM.

For the compound `CCN(CC)C(=O)c1c[nH]c2ccc(S(=O)(=O)Nc3cc(C)cc(C)c3)cc2c1=O`, the Potency was inactive: > 76.9 µM.

Consider `CCOc1ccccc1NC(=O)CCC(=O)Nc1ccc2nc(N3CCN(C)CC3)cc(C)c2c1`, for which the Potency is active: 9.63 µM.

As to `COc1ccccc1-n1c(N)c(C(N)=O)sc1=S`, the Potency was inactive: > 76.9 µM.

Regarding `COc1ccc(C2=CC(=O)OC3(CCCCC3)O2)cc1`, the Potency was inactive: > 76.9 µM.

`CCCn1c(SCC(=O)Nc2nc(C)c(C(=O)OC)s2)nnc1C(C)C`: the Potency was inactive: > 76.9 µM.

For `CC(C)Cc1nnc(NC(=O)CSc2ncn[nH]2)s1`, the Potency was inactive: > 76.9 µM.

Consider `COCCCN1C(=O)C(=O)/C(=C(/O)c2ccc(OC(C)C)cc2)C1c1ccncc1` (stereo unspecified), for which the Potency was inactive: > 76.9 µM.

Turning to `Cn1c(NC(=O)c2cc(-c3ccc4c(c3)OCO4)nc3ccccc23)cc(=O)n(C)c1=O`, the Potency is inactive: > 76.9 µM.

Consider `COCCCn1c(SCC(=O)Nc2cccc(C(=O)OC)c2)nnc1-c1ccncc1`, for which the Potency was inactive: > 76.9 µM.

With `CCN(CC)C(=O)NC1CC2CCCC(C1)N2Cc1ccccc1` (stereo unspecified), the Potency was inactive: > 76.9 µM.

Take `N#Cc1cccc(Cn2nnc(-c3ccccc3)n2)c1`: the Potency is inactive: > 76.9 µM.

On to `CCOP(=O)(c1c(F)c(F)c(F)c(F)c1F)C(O)c1ccccc1` (stereo unspecified), for which the Potency was inactive: > 76.9 µM.

`COc1ccc2[nH]c(=O)c(CN(C(=O)c3ccccn3)C3CCCCC3)cc2c1`: the Potency was inactive: > 76.9 µM.

With `CCC1(CC)C(=O)C(C)(C)C(=O)OC1c1ccccn1` (stereo unspecified), the Potency is inactive: > 76.9 µM.

Consider `CCc1nc(N)c(C#N)c(-c2ccncc2)c1C`, for which the Potency was inactive: > 76.9 µM.

As for `COc1ccc(C(=O)OCC(=O)c2ccc(C)c(S(=O)(=O)N3CCOCC3)c2)cc1OC`, the Potency is inactive: > 76.9 µM.

As for `Cc1ccc(S(=O)(=O)N2CCN(C(=O)c3cc(=O)[nH]c4ccccc34)CC2)c(C)c1`, the Potency was inactive: > 76.9 µM.

With `O=C(NCc1ccco1)c1cc2cc3ccc(Cl)cc3nc2o1`, the Potency was inactive: > 76.9 µM.

As for `Fc1ccc2[nH]c3c(N4CCN(c5ccccc5)CC4)ncnc3c2c1`, the Potency was inactive: > 76.9 µM.

For `O=C(c1cc(Cl)ccc1Cl)N1CCN(c2ccccn2)CC1`, the Potency is inactive: > 76.9 µM.

As to `CCCN1CCN(CCCNC(=O)C2CCCN(c3nc4ccc(OCC)cc4s3)C2)CC1` (stereo unspecified), the Potency is inactive: > 76.9 µM.

As for `COc1ccc(C(C)=O)cc1COC(=O)c1cc(C)oc1C`, the Potency was inactive: > 76.9 µM.

As for `O=C(CSc1nnnn1C1CCCC1)Nc1ccc2c(c1)OCCO2`, the Potency is inactive: > 76.9 µM.

As to `Cc1cc(NC(=O)CSc2nc3cc4c(cc3c(=O)n2CCc2ccccc2)OCO4)no1`, the Potency was inactive: > 76.9 µM.

For `O=C(Nc1ccc(S(=O)(=O)N2CCCC2)cc1)c1ccc(CN2CCOCC2)cc1`, the Potency result was “inactive”.

With `CCOC(=O)c1nnn(-c2nonc2N)c1CN1CCCCCC1`, the Potency is inactive: > 76.9 µM.

`O=C(c1ccc(Cl)cc1)C1CCN(C(=O)NC2CCCCC2)CC1`: the Potency was inactive: > 76.9 µM.

As for `Clc1cccc(-c2nc3nc4ccccc4nc3n2Cc2ccco2)c1`, the Potency was inactive: > 76.9 µM.

As for `CC1CCC(NC(=O)CN2C(=O)C3CCCN3c3ncc(Cl)cc32)CC1` (stereo unspecified), the Potency was inactive: > 76.9 µM.

With `CC1Oc2ccccc2N(CC(=O)NCC2CCCO2)C1=O` (stereo unspecified), the Potency is inactive: > 76.9 µM.

Regarding `Cc1ccc(C(=O)NC2CCCc3ccccc32)o1` (stereo unspecified), the Potency is inactive: > 76.9 µM.

As to `CCCCOc1ccccc1-c1cc(C(=O)O)[nH]n1`, the Potency was inactive: > 76.9 µM.

Turning to `N#CN=C(N)c1ccccc1`, the Potency was inactive: > 76.9 µM.

`COC(=O)c1ccc(C2C(C#N)=C(N)Oc3cc(C)n(C)c(=O)c32)cc1` (stereo unspecified): the Potency is inactive: > 76.9 µM.

Take `CCn1c(=O)c(C(=O)Nc2nc3ccccc3[nH]2)c(O)c2ccccc21`: the Potency is inactive: > 76.9 µM.

As to `Cc1ccccc1Cn1c(=O)c2c(nc3n2CCCN3Cc2ccccc2)n(C)c1=O`, the Potency was inactive: > 76.9 µM.

For the compound `Cc1cccc(NC(=O)CC(C)(C)C)c1`, the Potency is inactive: > 76.9 µM.

As for `COc1ccccc1NC(=O)N1CCCC1C(=O)NCc1ccccc1F` (stereo unspecified), the Potency is inactive: > 76.9 µM.

As for `Cc1ccc2cc(CN(CCCO)S(=O)(=O)c3cccc4nsnc34)c(=O)[nH]c2c1C`, the Potency is inactive: > 76.9 µM.

As for `Oc1ccc(N2CCN(C(c3cccs3)c3nnnn3CCc3ccccc3)CC2)cc1` (stereo unspecified), the Potency entry is “inactive”.

Regarding `COc1ccccc1CNCc1cccs1`, the Potency is inactive: > 76.9 µM.

`CC1CCN(S(=O)(=O)c2ccc(NC(=O)CSc3nnnn3C)cc2)CC1`: the Potency is inactive: > 76.9 µM.

In the case of `CN(C)C(CNS(=O)(=O)c1ccc(Br)cc1)c1cccnc1` (stereo unspecified), the Potency is inactive: > 76.9 µM.

Take `COC(=O)c1ccc(N2C(=O)c3ccc(OC)c(OC)c3C2=O)cc1`: the Potency is inactive: > 76.9 µM.

As for `CN(Cc1cc(=O)[nH]c2ccccc12)C(=O)c1ccccc1`, the Potency is inactive: > 76.9 µM.

Consider `COc1ccc(OC)c(-c2nc3c(C)n[nH]c(=O)c3[nH]2)c1`, for which the Potency is inactive: > 76.9 µM.

`O=C(Nc1cccc(NC(=O)c2cccs2)c1)c1ccco1`: the Potency is inactive: > 76.9 µM.

On to `O=C(CCn1nc(-c2ccccc2)ccc1=O)NCCCN1CCCCCC1`, for which the Potency is inactive: > 76.9 µM.

As for `Cc1nnc(SCc2cc(=O)[nH]c(Nc3nc(C)c4ccccc4n3)n2)s1`, the Potency is inactive: > 76.9 µM.

Regarding `Brc1ccc(Nc2c3c(nc4ncnn24)CCC3)cc1`, the Potency was inactive: > 76.9 µM.

`NC(=O)c1c(-c2ccccc2)oc2ccc(O)cc12`: the Potency is inactive: > 76.9 µM.

As to `O=C(CC(=O)Nc1ccccn1)Nc1ccccn1`, the Potency was inactive: > 76.9 µM.

Regarding `COc1ccc2cc(CN(C(=O)Nc3ccccc3OC)C3CCCC3)c(=O)[nH]c2c1`, the Potency was inactive: > 76.9 µM.

Consider `Cc1cnc(NC(=O)COc2ccccc2)s1`, for which the Potency is inactive: > 76.9 µM.

Consider `COc1ccccc1S(=O)(=O)Cc1ccc(C(=O)N2CCN(c3ccccc3)CC2)o1`, for which the Potency is inactive: > 76.9 µM.

With `CCOC(=O)c1c(C)oc2c1cc(O)c1ccccc12`, the Potency is inactive: > 76.9 µM.

`COC1(OC)C(=N/O)/C(=N\O)CCC1O` (stereo unspecified): the Potency is inactive: > 76.9 µM.

As to `Cc1nnc(NC(=O)CCC(=O)N2CCC(C)CC2)s1`, the Potency is inactive: > 76.9 µM.

In the case of `O=c1[nH]c2cc3c(cc2cc1C(c1nnnn1C1CCCCC1)N1CCSCC1)OCCO3` (stereo unspecified), the Potency was inactive: > 76.9 µM.

Take `N#Cc1c(N)nc(SC2CCCCC2=O)c(C#N)c1-c1ccco1` (stereo unspecified): the Potency is inactive: > 76.9 µM.

On to `Cc1csc(NC(=O)CSCC(=O)Nc2ccccc2)n1`, for which the Potency is inactive: > 76.9 µM.

On to `CCOc1ccccc1-c1nc(-c2ccc(NC(=O)c3ccc(Br)o3)cc2)no1`, for which the Potency was inactive: > 76.9 µM.

`O=c1[nH]nc2c3ccccc3cnn12`: the Potency was inactive: > 76.9 µM.

On to `COc1ccc(NC(=O)Cn2nnc(-c3ccc(CN4CCOCC4)cc3)n2)c(OC)c1`, for which the Potency was inactive: > 76.9 µM.

`Cc1cc(C(=O)CSc2nnc(-c3cccs3)o2)c(C)n1-c1ccccc1`: the Potency was inactive: > 76.9 µM.

With `COc1ccc(C(C(O)C(=O)c2c[nH]c3ccccc23)N2CCN(c3ccc(OC)cc3)CC2)cc1` (stereo unspecified), the Potency is inactive: > 76.9 µM.
